# Source: the supplement of paper PMC4604168 (melanoma cell lines)
# The other results are listed elsewhere or left out. Most values come without repeats; read them as rough.
# Columns and labels:
# Test in all cases: cell count relative to DMSO control; melanoma cells; higher = more viable cells
# Settings in all cases: library dose: low library concentration; 72 h
# MZ2-MEL = system: MZ2-MEL
# MeWo = system: MeWo
# RPMI7951 = system: RPMI7951
# RVH-421 = system: RVH-421
# SkMel28 = system: SkMel28
# SkMel2 = system: SkMel2
# SkMel30 = system: SkMel30
# SkMel5 = system: SkMel5
# UACC257 = system: UACC257
# UACC62 = system: UACC62
# 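Further: cell number obtained by counting DAPI-stained nuclei in high-throughput microscope images with image analysis software, screen run in 1,536-well plates.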
Compound,cell count (MZ2-MEL),cell count (MeWo),cell count (RPMI7951),cell count (RVH-421),cell count (SkMel28),cell count (SkMel2),cell count (SkMel30),cell count (SkMel5),cell count (UACC257),cell count (UACC62)
"Nc1ccn([C@@H]2O[C@H](CO)[C@@H](O)C2(F)F)c(=O)n1 [gemcitabine] + COc1ccc(COc2ccc(Cc3cnc(N)nc3N)cc2OC)cc1 [GW2580] (first compound 0.0004 µM, partner dose 1 µM)",101%,107%,102%,95.4%,95.9%,107%,122%,101%,87.2%,106%
"Nc1ccn([C@@H]2O[C@H](CO)[C@@H](O)C2(F)F)c(=O)n1 [gemcitabine] + Cn1cncc1[C@@](N)(c1ccc(Cl)cc1)c1ccc2c(c1)c(-c1cccc(Cl)c1)cc(=O)n2C [tipifarnib] (first compound 0.0004 µM, partner dose 0.01 µM)",101%,96.2%,99%,100%,108%,82.2%,114%,102%,82%,78.4%
"Nc1ncn([C@H]2C[C@H](O)[C@@H](CO)O2)c(=O)n1 [decitabine] + COc1cc2c(Oc3ccc4[nH]c(C)cc4c3F)ncnc2cc1OCCCN1CCCC1 [cediranib] (first compound 0.1 µM, partner dose 0.4 µM)",87.6%,105%,94.3%,110%,94.2%,105%,103%,96.6%,101%,84.7%
"CC(=O)c1c(C)c2cnc(Nc3ccc(N4CCNCC4)cn3)nc2n(C2CCCC2)c1=O [palbociclib] + c1cc(-c2cnn3cc(-c4ccc(OCCN5CCCCC5)cc4)cnc23)ccn1 [Dorsomorphin] (first compound 0.04 µM, partner dose 0.4 µM)",93.7%,96.2%,77.3%,92.9%,75.2%,97.9%,71.5%,74.2%,48.9%,70.3%
"CC(=O)c1c(C)c2cnc(Nc3ccc(N4CCNCC4)cn3)nc2n(C2CCCC2)c1=O [palbociclib] + CN(C)S(=O)(=O)c1ccc2c(c1)/C(=C/c1cc3c([nH]1)CCCC3)C(=O)N2 [SU6656] (first compound 0.04 µM, partner dose 0.4 µM)",67.7%,67.7%,93.1%,74.2%,71.7%,70.2%,60.4%,72.7%,51.3%,71.1%
"CC(=O)c1c(C)c2cnc(Nc3ccc(N4CCNCC4)cn3)nc2n(C2CCCC2)c1=O [palbociclib] + O=c1cc(-c2cccc3c2Sc2ccccc2S3)oc(N2CCOCC2)c1 [KU55933] (first compound 0.04 µM, partner dose 1 µM)",76.9%,68.4%,81.7%,84.4%,70.2%,83.2%,76.7%,73.7%,64%,75%
"CC(=O)c1c(C)c2cnc(Nc3ccc(N4CCNCC4)cn3)nc2n(C2CCCC2)c1=O [palbociclib] + NC(=O)Nc1cc(-c2cccc(F)c2)sc1C(=O)N[C@H]1CCCNC1 [AZD7762] (first compound 0.04 µM, partner dose 0.02 µM)",88.8%,74.9%,62.5%,91%,92.4%,96.7%,77.5%,78.6%,79.7%,87.7%
"Nc1ncn([C@H]2C[C@H](O)[C@@H](CO)O2)c(=O)n1 [decitabine] + O=C(Nc1cccc(Cl)c1)Nc1ncc(CCNc2ncnc3ccsc23)s1 [SNS314] (first compound 0.1 µM, partner dose 0.0008 µM)",80.4%,90.3%,75.2%,81.9%,85%,95.4%,95.9%,107%,87.1%,79.6%
"CC(=O)O[C@@]12CO[C@@H]1C[C@H](O)[C@@]1(C)C(=O)[C@H](O)C3=C(C)[C@@H](OC(=O)[C@H](O)[C@@H](NC(=O)OC(C)(C)C)c4ccccc4)C[C@@](O)([C@@H](OC(=O)c4ccccc4)[C@H]21)C3(C)C [Docetaxel] + C[C@@H]1CCN(C(=O)CC#N)C[C@@H]1N(C)c1ncnc2[nH]ccc12 [CP690550] (first compound 0.0001 µM, partner dose 1 µM)",46.5%,40.7%,39.4%,54.2%,27.1%,40.8%,27.5%,70%,34.9%,44.4%
"Nc1ncn([C@H]2C[C@H](O)[C@@H](CO)O2)c(=O)n1 [decitabine] + N#Cc1c(O)c2c(-c3ccc(-c4ccccc4O)cc3)csc2[nH]c1=O [A769662] (first compound 0.1 µM, partner dose 2 µM)",92.9%,108%,80.4%,109%,94.8%,98.3%,113%,102%,130%,79.8%
"CC(=O)c1c(C)c2cnc(Nc3ccc(N4CCNCC4)cn3)nc2n(C2CCCC2)c1=O [palbociclib] + O=C(Nc1ccccc1)c1cc([N+](=O)[O-])ccc1Cl [GW9662] (first compound 0.04 µM, partner dose 2 µM)",73%,69.1%,68.2%,95.6%,85%,84.2%,73.3%,66.7%,86.9%,68.1%
"CC(=O)O[C@@]12CO[C@@H]1C[C@H](O)[C@@]1(C)C(=O)[C@H](O)C3=C(C)[C@@H](OC(=O)[C@H](O)[C@@H](NC(=O)OC(C)(C)C)c4ccccc4)C[C@@](O)([C@@H](OC(=O)c4ccccc4)[C@H]21)C3(C)C [Docetaxel] + CC1(C)NC(=O)N(c2ccc([N+](=O)[O-])c(C(F)(F)F)c2)C1=O [nilutamide] (first compound 0.0001 µM, partner dose 1 µM)",40.8%,49.2%,41.2%,75.4%,43.5%,40.1%,30.4%,74.9%,48.9%,43.9%
"Nc1nc(F)nc2c1ncn2[C@@H]1O[C@H](CO)[C@@H](O)[C@@H]1O [fludarabine] + NC(=O)Nc1cc(-c2cccc(F)c2)sc1C(=O)N[C@H]1CCCNC1 [AZD7762] (first compound 0.2 µM, partner dose 0.02 µM)",100%,32.5%,70.1%,90.1%,63.4%,8.17%,15.7%,58.5%,109%,91.9%
"CC(=O)O[C@@]12CO[C@@H]1C[C@H](O)[C@@]1(C)C(=O)[C@H](O)C3=C(C)[C@@H](OC(=O)[C@H](O)[C@@H](NC(=O)OC(C)(C)C)c4ccccc4)C[C@@](O)([C@@H](OC(=O)c4ccccc4)[C@H]21)C3(C)C [Docetaxel] + O=c1cc(-c2cccc3c2Sc2ccccc2S3)oc(N2CCOCC2)c1 [KU55933] (first compound 0.0001 µM, partner dose 1 µM)",46.9%,48.6%,37.8%,45.6%,43.1%,44.5%,31%,85.7%,41.3%,34.7%
"Nc1ncn([C@H]2C[C@H](O)[C@@H](CO)O2)c(=O)n1 [decitabine] + CCCCCCCCCCCC1=C(O)C(=O)C=C(O)C1=O [Embelin] (first compound 0.1 µM, partner dose 1.2 µM)",88%,93.6%,80.2%,99.1%,89.8%,105%,126%,112%,86.3%,78.4%
"Nc1ncn([C@H]2C[C@H](O)[C@@H](CO)O2)c(=O)n1 [decitabine] + CCc1ccc(CCOc2ccc(CC3SC(=O)NC3=O)cc2)nc1 [pioglitazone] (first compound 0.1 µM, partner dose 2 µM)",84.2%,88.7%,83.6%,105%,67.1%,98.5%,87%,98%,90.8%,64.6%
"Nc1ccn([C@@H]2O[C@H](CO)[C@@H](O)C2(F)F)c(=O)n1 [gemcitabine] + CN(C)S(=O)(=O)c1ccc2c(c1)/C(=C/c1cc3c([nH]1)CCCC3)C(=O)N2 [SU6656] (first compound 0.0004 µM, partner dose 0.4 µM)",93.1%,88.1%,103%,88.4%,84%,96.7%,113%,91.4%,94.8%,81.8%
"Nc1nc(F)nc2c1ncn2[C@@H]1O[C@H](CO)[C@@H](O)[C@@H]1O [fludarabine] + c1cc(-c2cnn3cc(-c4ccc(OCCN5CCCCC5)cc4)cnc23)ccn1 [Dorsomorphin] (first compound 0.2 µM, partner dose 0.4 µM)",106%,22.5%,82.2%,108%,67.6%,3.37%,12.7%,49.8%,78.5%,97.7%
"Nc1nc(F)nc2c1ncn2[C@@H]1O[C@H](CO)[C@@H](O)[C@@H]1O [fludarabine] + CCc1ccc(CCOc2ccc(CC3SC(=O)NC3=O)cc2)nc1 [pioglitazone] (first compound 0.2 µM, partner dose 2 µM)",106%,37.4%,96.7%,104%,89.6%,8.36%,21.8%,63.9%,90%,77.5%
"CC(=O)O[C@@]12CO[C@@H]1C[C@H](O)[C@@]1(C)C(=O)[C@H](O)C3=C(C)[C@@H](OC(=O)[C@H](O)[C@@H](NC(=O)OC(C)(C)C)c4ccccc4)C[C@@](O)([C@@H](OC(=O)c4ccccc4)[C@H]21)C3(C)C [Docetaxel] + O=C1NC(=O)/C(=C/c2ccc(-c3ccc(F)cc3O)o2)S1 [AS252424] (first compound 0.0001 µM, partner dose 1 µM)",51.1%,35.5%,49.2%,56.8%,40%,46.6%,30.5%,62%,46.8%,39.7%
"CC(=O)c1c(C)c2cnc(Nc3ccc(N4CCNCC4)cn3)nc2n(C2CCCC2)c1=O [palbociclib] + COc1cc2ncnc(Nc3ccc(Oc4ccccc4)cc3)c2cc1OC [SrcI1] (first compound 0.04 µM, partner dose 2 µM)",54%,78.9%,68.4%,88%,64.3%,89.1%,51.4%,60.7%,80%,70.7%
